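96-well plates; 48 h exposure; 5 concentrations. Endpoints by linear interpolation between flanking doses. Not reached: highest tested concentration assigned. GI50 is the concentration that inhibits growth by half. TGI denotes the concentration required for complete inhibition of growth.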
Tested on: NCI-H322M lung
Test: NCI-60 cell line screen, 48 h

SMILES | GI50 [µM] | TGI [µM]
CCOc1c(Br)cc(C2C(C(=O)OC)=CN(C)C=C2C(=O)OC)cc1OC | > 100 | > 100
Cc1ccc(CC(=O)Nc2ccc(NC(=O)/C=C/NC(=O)/C=C/c3ccc(-c4ccccc4)cc3)cc2C(=O)c2ccccc2)cc1 |  | 17.7
CN(C)c1ccc(/C=C2/SC(=S)NC2=O)cc1 |  | > 100
CC(=N/NC(=S)N1CCCCC1)/C(=N\NC(=S)N1CCCCC1)c1ccccc1 |  | 3.63
Cn1cc(-c2nc(-c3c[nH]c4ncccc34)cs2)c2cc(F)ccc21 | 1.75 | 12.9
S=C1SC(=Nc2ccccc2)C(=Nc2ccccc2)N1c1ccccc1 |  | > 100
C[n+]1c2ccccc2c(CNc2ccc(S(=O)(=O)N=C(N)N)cc2)c2ccccc21 |  | > 100
CC1=NN(C(=O)CC(=O)Nc2ccccc2C)C(=O)C1N=Nc1ccc(C(=O)O)cc1 (centres undefined) |  | > 100
O=C1/C(=C\c2ccc(Cl)cc2Cl)Sc2scc(-c3cccc([N+](=O)[O-])c3)[n+]21 |  | 35.2
C[n+]1c(/C=C\c2ccc(Cl)cc2)ccc2ccccc21 | 37.2 | > 100
COc1cccc2c1CCc1ccccc1CC2=O |  | > 100
CCN1CCC(O)(c2ccc(C)cc2)C(C(=O)c2ccc(C)cc2)C1 (centres undefined) |  | > 100
COc1cccc(C2c3cc4c(cc3OC(C)(O)C2C)OCO4)c1O (centres undefined) |  | > 95.4
CC(C)(C)OC(=O)N(O)[C@@H]1C=C[C@H](n2cnc3c(N)ncnc32)C1 |  | > 100
C=CC(Cl)(CBr)CCC(Br)=C(C)C (centres undefined) |  | > 100
COc1cc2c3c(n(CCCCOC(=O)C(F)(F)F)c(=O)c2cc1OC)-c1cc2c(cc1C3=O)OCO2 | > 100 | > 100
CN1C(=O)c2ccccc2NC(=O)c2cnn(C)c21 |  | > 100
Cc1cc(NS(=O)(=O)c2ccc(N=Nc3cc(N=Nc4ccc(S(=O)(=O)Nc5cc(C)nc(C)n5)cc4)c4c(NC(=O)C(Cl)Cl)cccc4c3OC(=O)C(Cl)Cl)cc2)nc(C)n1 (tested in a mixture with another compound) |  | 36.7
CCCCCCCC1(N=[N+]=[N-])C(=O)c2ccccc2N(C)C1=O (centres undefined) |  | > 100
O=C(O)/C=C/n1c2ccccc2c(=O)c2ccccc21 |  | > 100
Cc1ccc(S(=O)(=O)N2CC3OC(C)(C)OC3C2CO)cc1 (centres undefined) |  | > 100
C=C1C(=O)O[C@@H]2[C@H]1C[C@@H](O)[C@H](C)[C@@](O)(C(=O)/C=C/C)[C@H]2OC(=O)C(C)CC (some centres undefined) |  | > 93.9
CCOC12OC3=C(CC1CC1=C(CCC1=O)O2)C(=O)CC3 (centres undefined) |  | > 100
O=C(/C=C(\O)c1ccc(Cl)cc1)C(=O)N=Nc1c(O)[nH]c2ccc(Br)cc12 |  | > 100
CCc1n[nH]c(=S)n1/N=C\c1ccc(-c2ccccc2Cl)o1 |  | > 100

SMILES | GI50 [µM] | TGI [µM]
CC(=O)OC(/C=C1/C=CC(=O)O1)COC(=O)c1ccccc1 (centres undefined) |  | > 31.2
C/C=C(C)/C=C/CC(C)CCC=C(C)C (centres undefined) |  | > 100
CCOC(=O)Cc1nnc2c(-c3ccccc3)nc3ccccc3n12 |  | 51.4
CCOC(=O)c1c(N)nn2c1cc1cccccc12 |  | > 100
COC(=O)C1=C2CCC(=O)[C@@]2(C)C(OC(C)=O)C=CC1 (some centres undefined) |  | > 100
CC(=O)[CH-]C(=O)c1ccccc1.CC(=O)[CH-]C(=O)c1ccccc1.CC[O-].CC[O-].[Zr+4] | 53.3 | > 100
CC[C@H](C)[C@H]1NC(=O)[C@@H](N[C@](C)(O)[C@@H](N)CC(C)C)[C@@H](C)OC(=O)[C@H](Cc2ccc(OC)cc2)N(C)C(=O)[C@@H]2CCCN2C(=O)[C@H](CC(C)C)NC(=O)[C@@H](C)C(=O)[C@H](C(C)C)OC(=O)C[C@@H]1O | 0.0105 | 0.146
Cc1cc(O)cc2oc(=O)c3c(O)cc(O)cc3c12 |  | 58.9
COc1ccc(N(C)S(=O)(=O)c2ccccc2)cc1 |  | > 100
COc1cc(/C=C2\C[C@H]3[C@@H]4CC=C5C[C@@H](O)CC[C@]5(C)[C@H]4CC[C@]3(C)[C@H]2O)cc(OC)c1OC |  | > 100
COc1cc2c(cc1OCCCOc1cc(-c3ccc(F)cc3)nc(C)n1)N=C[C@@H]1CCCN1C2=O |  | 61.6
O=C(O)CN1CCNCCN(CP(=O)(O)O)CC1 |  | > 100
O=C1CC(c2ccc(N3CCOCC3)cc2)(c2ccsc2)NC(=O)C1Sc1ccccc1Cl (centres undefined) | 68.7 | > 100
C1=Cc2ccccc2Nc2ccccc21 | > 100 | > 100
COC(=O)C1=C(O)c2cc(OC)c(OC)c(OC)c2[C@H](c2cc(OC)c(OC)c(OC)c2)C1C(=O)OC (some centres undefined) |  | > 100
COc1cc(O)cc(/C=C/c2ccc(O)cc2)c1 |  | 98.2
CC(=O)OC1CCN(C(=O)c2ccccc2)CC1CC1(c2cc3ccccc3[nH]2)OCCO1 (centres undefined) |  | > 100
C=C1C(=O)O[C@@H]2C[C@@]3(C)CCC[C@H](C)C3=C[C@H]12 |  | 29.5
Cc1ccc(S(=O)(=O)N2CCN(S(=O)(=O)c3ccc(C)cc3)Cc3ccccc3C2)cc1 |  | > 100
COc1cc(OC)cc(Oc2nc3ccccc3nc2C(=O)O)c1 |  | > 100
O=C(Nc1cc(C(=O)Nc2cccc(S(=O)(=O)O)c2)cc(C(=O)Nc2cccc(S(=O)(=O)O)c2)c1)c1cccc(C(=O)Nc2cc(C(=O)Nc3cccc(S(=O)(=O)O)c3)cc(C(=O)Nc3cccc(S(=O)(=O)O)c3)c2)c1 |  | > 100
COc1cc(C2c3cc4c(cc3OC(NC3CCCCC3)C2C)OCO4)cc(OC)c1OC (centres undefined) |  | > 100
Cn1cncc1[C@@](N)(c1ccc(Cl)cc1)c1ccc2c(c1)c(-c1cccc(Cl)c1)cc(=O)n2C | 8.4 | 22.2
CC(=O)N1N=C2/C(=C/c3ccccc3)CC(C)CC2C1c1ccccc1 (centres undefined) | 18.9 | 39.8

From PubChem BioAssay (NCI)
